{"source": "PubChem BioAssay (NCATS)", "key": {"[1]": {"assay": "qHTS drug screen for cell cycle checkpoint inhibitors in PARPi-resistant BRCA-mutant ovarian cancer cell lines. (AID 1963452)", "details": "PEO1/OlaR viability, CellTiter-Glo luminescence, 96 h", "method_in_brief": "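PEO1, PEO4 and PEO1/OlaR ovarian cancer cells, 600 per well, exposed 96 h at 37C to a dilution series. Viability read by CellTiter-Glo luminescence, normalized to DMSO and empty wells; activity summarized as Z-AUC.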"}, "[2]": {"assay": "qHTS for identification of novel therapeutic agents for treatment of microphthalmiaassociated transcription factor (MiT) renal cell carcinoma (RCC) (AID 1963991)", "details": "CellTiter-Glo, 48 h; for z-score: stronger effect = lower value", "method_in_brief": "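Curves over 11 concentrations were fitted to CellTiter-Glo luminescence, scaled between empty wells (0%) and DMSO (100%) viability. Cells were UOK109, UOK124 and UOK145 TFE3-fusion RCC lines at 500/well, exposed 48 hours at 37 C.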"}, "[3]": {"details": "measured here: PEO1 parental viability"}, "[4]": {"details": "TFE3-RCC UOK109 viability, measured here: UOK109 Z-AUC"}, "[5]": {"details": "TFE3-RCC viability, measured here: UOK124 Z-AUC"}, "[6]": {"details": "TFE3-RCC viability, measured here: UOK124 cell viability"}, "[7]": {"details": "TFE3-RCC viability, measured here: UOK145 Z-AUC"}, "[8]": {"details": "TFE3-RCC viability, measured here: UOK145 cell viability"}}, "note": "The list shows a part of the results. These are further read-outs of the screen, such as a control signal, another cell line or another target. No call is given for them. For part of these data: The list favours compounds with an active or inconclusive main result. The note in brackets gives the kind of curve behind each potency; many fits are weak. Tags give direction and shape of the fitted curve."}
{"smiles": "COc1cc(CCc2cc(NC(=O)c3ccc(N4C[C@@H](C)N[C@@H](C)C4)cc3)n[nH]2)cc(OC)c1", "values": [{"measurement": "AC50", "setting": "[1]; [3]", "result": "13.8 µM [falling, single point]"}, {"measurement": "AC50", "setting": "[1]; measured here: PEO4 viability", "result": "19.5 µM [falling, partial curve]"}, {"measurement": "z-score", "setting": "[2]; [4]", "result": 0.463}, {"measurement": "z-score", "setting": "[2]; [5]", "result": -0.081}, {"measurement": "AC50", "setting": "[2]; [6]", "result": "16.6 µM [falling, partial curve]"}, {"measurement": "z-score", "setting": "[2]; [7]", "result": 0.393}, {"measurement": "AC50", "setting": "[2]; [8]", "result": "26.4 µM [falling, partial curve]"}]}
{"smiles": "NC(=O)Nc1cc(-c2ccc(CN3CCOCC3)cc2)sc1C(N)=O", "values": [{"measurement": "AC50", "setting": "[1]; [3]", "result": "6.16 µM [falling, partial curve]"}, {"measurement": "AC50", "setting": "[1]; measured here: PEO4 viability", "result": "1.55 µM [falling, full curve]"}, {"measurement": "z-score", "setting": "[2]; [4]", "result": 0.63}, {"measurement": "z-score", "setting": "[2]; [5]", "result": 0.435}, {"measurement": "AC50", "setting": "[2]; [6]", "result": "18.7 µM [falling, partial curve]"}, {"measurement": "z-score", "setting": "[2]; [7]", "result": 0.225}, {"measurement": "AC50", "setting": "[2]; [8]", "result": "18.7 µM [falling, partial curve]"}]}
{"smiles": "C=CC(=O)Nc1cccc(Oc2nc(Nc3ccc(N4CCN(C)CC4)cc3OC)ncc2Cl)c1", "values": [{"measurement": "AC50", "setting": "[1]; [3]", "result": "19.5 µM [falling, partial curve]"}, {"measurement": "AC50", "setting": "[1]; measured here: PEO4 viability", "result": "24.5 µM [falling, single point]"}, {"measurement": "z-score", "setting": "[2]; [4]", "result": -2.42}, {"measurement": "z-score", "setting": "[2]; [5]", "result": -0.743}, {"measurement": "AC50", "setting": "[2]; [6]", "result": "20.9 µM [falling, partial curve]"}, {"measurement": "z-score", "setting": "[2]; [7]", "result": -2.92}, {"measurement": "AC50", "setting": "[2]; [8]", "result": "8.33 µM [falling, partial curve]"}]}
{"smiles": "COc1cc2c(Oc3ccc(NC(=O)C4(C(=O)Nc5ccc(F)cc5)CC4)cc3F)ccnc2cc1OCCCN1CCOCC1", "values": [{"measurement": "AC50", "setting": "[1]; [3]", "result": "3.47 µM [falling, full curve]"}, {"measurement": "AC50", "setting": "[1]; measured here: PEO4 viability", "result": "1.1 µM [falling, full curve]"}, {"measurement": "z-score", "setting": "[2]; [4]", "result": -0.638}, {"measurement": "z-score", "setting": "[2]; [5]", "result": -0.906}, {"measurement": "AC50", "setting": "[2]; [6]", "result": "16.6 µM [falling, partial curve]"}, {"measurement": "z-score", "setting": "[2]; [7]", "result": -1.82}, {"measurement": "AC50", "setting": "[2]; [8]", "result": "7.43 µM [falling, full curve]"}]}
{"smiles": "COc1cc(Nc2ncc(F)c(Nc3ccc4c(n3)N(COP(=O)(O)O)C(=O)C(C)(C)O4)n2)cc(OC)c1OC", "values": [{"measurement": "AC50", "setting": "[1]; [3]", "result": "15.5 µM [falling, single point]"}, {"measurement": "AC50", "setting": "[1]; measured here: PEO4 viability", "result": "15.5 µM [falling, partial curve]"}, {"measurement": "z-score", "setting": "[2]; [4]", "result": -1.35}, {"measurement": "z-score", "setting": "[2]; [5]", "result": -0.386}, {"measurement": "AC50", "setting": "[2]; [6]", "result": "2.96 µM [falling, partial curve]"}, {"measurement": "z-score", "setting": "[2]; [7]", "result": -0.958}, {"measurement": "AC50", "setting": "[2]; [8]", "result": "1.18 µM [falling, full curve]"}]}
{"smiles": "CC(C)(C)c1cc(NC(=O)Nc2ccc(-c3cn4c(n3)sc3cc(OCCN5CCOCC5)ccc34)cc2)no1", "values": [{"measurement": "AC50", "setting": "[1]; [3]", "result": "17.4 µM [falling, partial curve, poor fit]"}, {"measurement": "AC50", "setting": "[1]; measured here: PEO4 viability", "result": "19.5 µM [falling, partial curve]"}, {"measurement": "z-score", "setting": "[2]; [4]", "result": 0.396}, {"measurement": "z-score", "setting": "[2]; [5]", "result": -2.44}, {"measurement": "AC50", "setting": "[2]; [6]", "result": "20.9 µM [falling, single point]"}, {"measurement": "z-score", "setting": "[2]; [7]", "result": -1.65}, {"measurement": "AC50", "setting": "[2]; [8]", "result": "14.8 µM [falling, partial curve]"}]}
{"smiles": "COc1cc2c(Oc3ccc(-c4cnc(Nc5ccc(F)cc5)n(C)c4=O)cc3F)ccnc2cc1OCCCN1CCOCC1", "values": [{"measurement": "AC50", "setting": "[1]; [3]", "result": "6.16 µM [falling, partial curve]"}, {"measurement": "AC50", "setting": "[1]; measured here: PEO4 viability", "result": "5.49 µM [falling, partial curve]"}, {"measurement": "z-score", "setting": "[2]; [4]", "result": 0.402}, {"measurement": "z-score", "setting": "[2]; [5]", "result": 0.0365}, {"measurement": "AC50", "setting": "[2]; [6]", "result": "18.7 µM [falling, partial curve]"}, {"measurement": "z-score", "setting": "[2]; [7]", "result": 0.0576}, {"measurement": "AC50", "setting": "[2]; [8]", "result": "18.7 µM [falling, partial curve]"}]}
{"smiles": "CN(CC(=O)N(Cc1ccc(C2CCCCC2)cc1)c1ccc(C(=O)O)c(O)c1)S(=O)(=O)c1c(F)c(F)c(F)c(F)c1F", "values": [{"measurement": "AC50", "setting": "[1]; [3]", "result": "27.5 µM [falling, single point]"}, {"measurement": "AC50", "setting": "[1]; measured here: PEO4 viability", "result": "24.5 µM [falling, single point]"}, {"measurement": "z-score", "setting": "[2]; [4]", "result": 0.184}, {"measurement": "z-score", "setting": "[2]; [5]", "result": 0.0603}, {"measurement": "AC50", "setting": "[2]; [6]", "result": "18.7 µM [falling, partial curve]"}, {"measurement": "z-score", "setting": "[2]; [7]", "result": 0.479}, {"measurement": "AC50", "setting": "[2]; [8]", "result": "29.6 µM [falling, single point]"}]}
{"smiles": "Cc1ccc(C(=O)Nc2cccc(C(F)(F)F)c2)cc1-c1ccc2nc(NCCN3CCOCC3)ncc2c1", "values": [{"measurement": "AC50", "setting": "[1]; [3]", "result": "2.45 µM [falling, full curve]"}, {"measurement": "AC50", "setting": "[1]; measured here: PEO4 viability", "result": "6.92 µM [falling, partial curve]"}, {"measurement": "z-score", "setting": "[2]; [4]", "result": 0.0796}, {"measurement": "z-score", "setting": "[2]; [5]", "result": 0.284}, {"measurement": "AC50", "setting": "[2]; [6]", "result": "7.43 µM [falling, partial curve]"}, {"measurement": "z-score", "setting": "[2]; [7]", "result": -0.643}, {"measurement": "AC50", "setting": "[2]; [8]", "result": "7.43 µM [falling, full curve]"}]}
{"smiles": "C[C@@H]1COC(Nc2ccc3ncnc(Nc4ccc(OCc5nccs5)c(Cl)c4)c3c2)=N1", "values": [{"measurement": "AC50", "setting": "[1]; [3]", "result": "6.92 µM [falling, partial curve]"}, {"measurement": "AC50", "setting": "[1]; measured here: PEO4 viability", "result": "7.76 µM [falling, partial curve]"}, {"measurement": "z-score", "setting": "[2]; [4]", "result": -1.87}, {"measurement": "z-score", "setting": "[2]; [5]", "result": -0.245}, {"measurement": "AC50", "setting": "[2]; [6]", "result": "23.5 µM [falling, partial curve]"}, {"measurement": "z-score", "setting": "[2]; [7]", "result": -1.26}, {"measurement": "AC50", "setting": "[2]; [8]", "result": "4.69 µM [falling, full curve]"}]}
{"smiles": "Cc1nc(N)sc1-c1ccnc(Nc2ccc(N3CCOCC3)cc2)n1", "values": [{"measurement": "AC50", "setting": "[1]; [3]", "result": "15.5 µM [falling, partial curve]"}, {"measurement": "AC50", "setting": "[1]; measured here: PEO4 viability", "result": "9.77 µM [falling, partial curve]"}, {"measurement": "z-score", "setting": "[2]; [4]", "result": -0.782}, {"measurement": "z-score", "setting": "[2]; [5]", "result": -0.0442}, {"measurement": "AC50", "setting": "[2]; [6]", "result": "14.8 µM [falling, partial curve]"}, {"measurement": "z-score", "setting": "[2]; [7]", "result": -0.808}, {"measurement": "AC50", "setting": "[2]; [8]", "result": "7.43 µM [falling, full curve]"}]}
{"smiles": "NC(=O)Nc1sc(-c2ccc(F)cc2)cc1C(N)=O", "values": [{"measurement": "AC50", "setting": "[1]; [3]", "result": "6.92 µM [falling, partial curve, poor fit]"}, {"measurement": "AC50", "setting": "[1]; measured here: PEO4 viability", "result": "8.71 µM [falling, partial curve, poor fit]"}, {"measurement": "z-score", "setting": "[2]; [4]", "result": -1.68}, {"measurement": "z-score", "setting": "[2]; [5]", "result": -1.15}, {"measurement": "AC50", "setting": "[2]; [6]", "result": "1.32 µM [falling, full curve]"}, {"measurement": "z-score", "setting": "[2]; [7]", "result": -0.515}, {"measurement": "AC50", "setting": "[2]; [8]", "result": "1.32 µM [falling, full curve]"}]}
